Measured values taken from publication PMC6919601, “Identification of Plasmodium dipeptidyl aminopeptidase allosteric inhibitors by high throughput screening” (PLoS ONE, 2019).
Values joined by “and” are separate entries in the source; they are usually repeats but may differ in a detail not shown here. Equal values may be shown once. About 230 (0.21%) of roughly 110,000 compounds showed an effect of 50% or more. This is one part of the list.

molecular target: DPAP1 (Plasmodium falciparum, UniProt Q8IIJ9); test: primary screen, percent inhibition; read by cleavage of a fluorogenic dipeptide substrate; higher = more effect of the substance; parameters: species or system P. falciparum D10 trophozoite lysates; single well
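Note: 30 min substrate incubation versus DMSO and 10 µM JCP410 controls.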

Sequence of DPAP1 (Q8IIJ9 whole entry, looked up): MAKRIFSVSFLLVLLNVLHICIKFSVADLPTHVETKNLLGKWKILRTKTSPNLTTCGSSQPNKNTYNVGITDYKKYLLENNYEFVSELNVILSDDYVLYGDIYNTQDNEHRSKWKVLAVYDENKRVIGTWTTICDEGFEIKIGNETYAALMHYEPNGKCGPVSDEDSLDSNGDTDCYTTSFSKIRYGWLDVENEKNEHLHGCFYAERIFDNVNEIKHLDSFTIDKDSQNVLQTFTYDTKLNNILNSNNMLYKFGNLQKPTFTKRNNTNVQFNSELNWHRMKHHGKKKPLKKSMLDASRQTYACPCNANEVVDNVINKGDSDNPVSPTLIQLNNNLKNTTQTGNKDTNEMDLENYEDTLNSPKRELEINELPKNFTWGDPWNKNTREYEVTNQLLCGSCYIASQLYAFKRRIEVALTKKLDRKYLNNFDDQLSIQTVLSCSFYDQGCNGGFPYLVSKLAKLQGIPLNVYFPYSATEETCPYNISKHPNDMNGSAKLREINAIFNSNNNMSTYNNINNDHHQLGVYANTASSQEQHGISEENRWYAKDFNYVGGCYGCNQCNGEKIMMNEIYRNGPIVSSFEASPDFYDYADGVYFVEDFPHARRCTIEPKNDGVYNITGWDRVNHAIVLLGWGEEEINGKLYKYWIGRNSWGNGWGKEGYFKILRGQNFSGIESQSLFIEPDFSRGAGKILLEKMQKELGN

In order of rising “% Inhibition @ 10 uM” value:
1. COc1ccccc1NC(=O)c1ccc(C)c(Cl)c1  -18.8%
2. O=C1N/C(=C/c2cc3c(cc2Cl)OCO3)C(=O)N1Cc1ccc(Br)cc1  -11.7%
3. CCCCn1c(C)c(C(=O)OCC)c2c(CN3CCOCC3)c(O)ccc21  -10.2%
4. COc1cccc(C(=O)Nc2cc(C)cc(C)c2)c1  -7.46%
5. Cc1nn(CCC(=O)NCCCN2CCc3ccccc3C2)c(=O)c2nn(-c3ccccc3)c(C)c12  -7.13%
6. O=C(CCC1(c2ccccc2)C(=O)c2ccccc2C1=O)NCCN1CCOCC1  -6.94%
7. O=C(Nc1cc(Cl)cc(Cl)c1)c1cccnc1  -6.82%
8. O=S(=O)(c1ccccc1)c1nnn2c1nc(NCc1ccc(F)cc1)c1ccccc12  -6.68%
9. N#CC1=C(N)Oc2cc(N)ccc2C12C(=O)Nc1ccccc12 (centres unmarked)  -6.44%
10. COc1ccc(CCNC(=O)CN(C)S(=O)(=O)c2ccc3nc(C)sc3c2)cc1OC  -5.89%
11. CCOC(=O)NC1c2ccccc2Oc2ccc(OC)cc21 (centres unmarked)  -5.62%
12. O=C(O)CCC(=O)n1ncc2ccc(Cl)cc21  -5.32%
13. CC(Cc1ccccc1)NC(=O)C(c1ccc(N)cc1)c1ccc(N)cc1 (centres unmarked)  -5.31%
14. O=C1OC(c2ccc(F)cc2)=N/C1=C\c1ccc(Cl)cc1  -5.03%
15. CC1CC(C)CN(C(=O)c2ccc3c(c2)ncn3C2CCCC2)C1 (centres unmarked)  -4.97%
16. CN1CCN(CCCNC(=O)c2cc3sccc3n2C)CC1  -4.85%
17. C/C(Cl)=C/Cn1c(=O)c2c(nc3n2CCS3)n(C)c1=O  -4.8%
18. COc1ccc(C(=O)N(Cc2ccc(C)o2)C2CCS(=O)(=O)C2)cc1 (centres unmarked)  -4.64%
19. O=c1oc(-c2ccccc2)nc2sc3c(c12)CCCC3  -3.98%
20. Cc1nnc(NC(=O)CSc2nc(C(C)C)ccc2C#N)s1  -3.96%
21. COC(=O)c1ccc(-c2ccco2)n1CC(=O)c1ccccc1  -3.75%
22. COc1ccccc1C(=O)N[C@@H](CS(=O)(=O)Cc1ccccc1)C(=O)NCC#N  -3.49%
23. N#CCNC(=O)[C@H](CC1CCCCC1)NC(=O)c1cccc(C(=O)O)c1  -3.49%
24. C=CCOc1c(Br)cc(CNc2cccc(C(=O)O)c2)cc1OC  -3.43%
25. COc1ccc(OCCCCS)cc1  -3.42%
26. Cc1ccc(S(=O)(=O)N2CCC(C(=O)N(Cc3ccccc3)Cc3ccccc3)CC2)cc1  -3.41%
27. c1ccc(-c2nnc(COc3ccc4oc5ccccc5c4c3)o2)cc1  -3.34%
28. CCOc1cc(C#N)c(NC(=O)c2ccccc2OCC)cc1OCC  -3.34%
29. Cc1ccc(OCC(=O)N(Cc2ccccc2)c2ccccn2)cc1C  -3.12%
30. CN(Cc1ccccc1)C(=O)CSc1c2c(nc3ccccc13)CCC2  -3.09%
31. COC(=O)C1=C(C)N(CCc2ccc(OC)c(OC)c2)C(=O)/C1=C\c1ccc(F)cc1  -3.06%
32. COc1ccccc1-c1nnc2ccc3ccccc3n12  -2.98%
33. CC(C)c1ccccc1OCC(=O)N1CCc2ccccc21  -2.94%
34. COCCCNc1nc2c(S(=O)(=O)c3ccccc3)nnn2c2ccsc12  -2.85%
35. CC(NC(=O)Nc1cccc2ccccc12)(C(F)(F)F)C(F)(F)F  -2.6%
36. CCCCNC(=O)c1nc2ncc(Br)cn2n1  -2.58%
37. COc1cc(-c2nc(-c3nonc3N)no2)cc(OC)c1OC  -2.14%
38. O=C(COc1cccc2ccccc12)N1CCN(C(=O)COc2cccc3ccccc23)CC1  -2.03%
39. CCOc1cnn(-c2ccccc2)c(=O)c1OCC  -2.02%
40. CCC(C)Oc1ccc(/C=C2/NC(=O)N(Cc3ccccc3F)C2=O)cc1OC (centres unmarked)  -1.81%
41. O=C(CCn1nc(-c2ccc(Cl)cc2)ccc1=O)NCc1cccnc1  -1.79%
42. Cn1c(=O)[nH]c(=O)c2c1ncn2Cc1ccccc1  -1.5%
43. CSC1=C(C#N)C(c2cccc(O)c2)CC(=O)N1 (centres unmarked)  -1.37%
44. CS(=O)(=O)N1CCC(C(=O)NCc2ccc(F)cc2)CC1  -1.34%
45. CC(C)NC(=O)C(=O)c1c(-c2ccccc2)[nH]c2ccccc12  -0.834%
46. Fc1ccccc1N1CCN(Cc2cccc3ccccc23)CC1  -0.828%
47. O=C(Nc1cccc(Cl)c1)NC1CCCCC1  -0.828%
48. Cc1c2cnn(CC(=O)NCCC3=CCCCC3)c(=O)c2c(C)n1Cc1ccccc1F  -0.447%
49. Cc1nn(-c2ccc(Br)cc2)c(O)c1/C=N/c1ccccn1  -0.413%
50. COc1ccc(CCNC(=O)CN(C)c2nn3c(=O)cc(C)nc3s2)c(OC)c1  -0.281%
51. Cc1ccccc1-c1nc(CS(=O)(=O)CC(=O)N2CCN(Cc3ccccc3)CC2)c(C)o1  -0.138%
52. CC1CC(Nc2ccccc2)c2ccccc2N1C(=O)C1CCCO1 (centres unmarked)  -0.0953%
53. Nc1cccc(NC(=O)c2cccc(S(=O)(=O)Nc3cccc(N)c3)c2)c1  -0.0369%
54. CCC(C(=O)O)n1c2ccccc2c2cnn(C)c(=O)c21 (centres unmarked)  -0.0309%
55. CCCCCC(=O)NC1(CCC)CCCC1  0.132%
56. CNC(=O)c1c(-c2c(Cl)cccc2Cl)noc1C  0.132%
57. CCN1CCN(c2ccc(NC(=O)C3CC=CCC3C(=O)O)cc2)CC1 (centres unmarked)  0.245%
58. CCCOc1ccccc1C(=O)N(Cc1ccccc1F)C1CCS(=O)(=O)C1 (centres unmarked)  0.366%
59. CC1CCCC(NC(=O)C2(C)CCC(=O)N2CCc2ccc(Cl)cc2)C1C (centres unmarked)  0.387%
60. CCOC(=O)C1=C(CN2CC(C)CC(C)C2)NC(=O)NC1c1ccccc1 (centres unmarked)  0.44%
61. Cc1nn(-c2ccccc2)c(C)c1C=O  0.569%
62. CCOc1cccc(C(=O)Nc2c(C)ccc3nsnc23)c1  0.635%
63. CC(=O)c1c(N2CCN(c3ccc(F)cc3)CC2)nc(=S)n(-c2ccccc2)c1C  0.789%
64. COc1cccc(NC(=O)c2ccc(Cl)c(Cl)c2)c1  0.823%
65. Cc1ccc(-n2nc(C)c3c(C)c(CCC(=O)NC4CCCC4)c(C)nc32)cc1  0.953%
66. CCOc1ccc(CNCc2c(C(=O)O)n(Cc3ccc(F)cc3)c3cc(OC)ccc23)cc1  0.984%
67. O=C1c2cccnc2C(=O)N1Cc1ccc(S(=O)(=O)N2CCC(Cc3ccccc3)CC2)s1  1.14%
68. Cc1c(CN(C)C(=O)Cn2nc(C(F)(F)F)c(Br)c2C)cnn1C  1.27%
69. COc1ccc(CN2CCN(Cc3ccc(Br)cc3)CC2)cc1OC  1.35%
70. COc1ccccc1N1CCN(C(=O)Nc2ccccc2)CC1  1.4%
71. N#Cc1cc2c(nc1SC1CCCCC1O)CCCC2 (centres unmarked)  1.52%
72. COc1ccc(N(CC(=O)Nc2cccc(C)c2)S(C)(=O)=O)c(OC)c1  1.52%
73. CN1CCN(S(=O)(=O)c2ccccc2[N+](=O)[O-])CC1  1.83%
74. O=C(Nc1ccccc1C(=O)NCCO)c1ccco1  1.89%
75. Cc1cc(=O)oc2cc(OCC3CC(c4ccccc4)=NO3)ccc12 (centres unmarked)  1.91%
76. C=CCc1cc(/C=C2/C(=N)N3C=CSC3=NC2=O)cc(OC)c1OCc1ccc(C)cc1  1.96%
77. CCCCCCOC(=O)c1[nH]ncc1[N+](=O)[O-]  2.13%
78. O=C(NCCc1ccccc1)c1cc([N+](=O)[O-])ccc1Cl  2.13%
79. COc1ccc(CNC(=O)c2nc(SC)ncc2Cl)cc1  2.19%
80. c1ccc(C2C3=C(Nc4nc5ccccc5n42)c2ccccc2CCC3)cc1 (centres unmarked)  2.4%
81. COCCO/C(O)=C1\C(C)=NC2=C(C(=O)CC(C)(C)C2)C1c1cccc2ccccc12 (centres unmarked)  2.45%
82. CSc1nn2c(=O)c(-c3ccccc3)nnc2s1  2.62%
83. CCOC(=O)C1CCCCN1Cc1ccc(OC)c(C)c1 (centres unmarked)  3.1%
84. Cc1ccc(CSc2nc3ccc(C(=O)NCCN4CCCC4)cc3n2C)cc1  3.13%
85. CCCCCC1CC(O)C=C(C)C1C(=O)OC (centres unmarked)  3.25%
86. CCOC(=O)c1cnc2c(C)cccc2c1NCCc1ccc(OC)c(OC)c1  4.18%
87. NC(=O)C1CCN(C(=O)CN2C(=O)c3ccccc3S2(=O)=O)CC1  4.18%
88. CCOc1ccc(-n2c(SCC(=O)N3CCC(C)CC3)nc3nnc(C)c-3c2N)cc1  4.35%
89. OCCN(Cc1ccccc1)Cc1c(F)cccc1F  4.51%
90. CCc1c(C)nc2ccc(OC)cc2c1Cl  4.52%
91. c1ccc2c(c1)nc(NC1CC1)c1nncn12  5.68%
92. O=C(NCCc1ccc(Cl)cc1)c1ccc(CS(=O)Cc2ccc(Cl)cc2)o1 (centres unmarked)  5.91%
93. O=C(C1CC(=O)N(c2ccccc2)C1)N(Cc1ccccc1)Cc1ccccc1 (centres unmarked)  6.35%
94. Cc1cc(NC(=O)CSc2nc3ccc(Br)cc3c3nc4ccccc4n23)[nH]n1  8.15%
95. COc1ccc(-c2nc(S)c3c(n2)Oc2cc(O)ccc2C3)cc1  9.17%
96. O=C(Cn1ncc2c3ccccc3nc-2c1O)N1CC=C(c2ccccc2)CC1  11.2%
97. Cc1cc(OCC(=O)Nc2ccc(S(=O)(=O)N3CCCC3)cc2)cc(C)c1Cl  12.4%
98. CC(C)(C)OC(=O)NC1CCN(S(=O)(=O)c2cccc(S(=O)(=O)N3CCOCC3)c2)CC1  19.6%
99. CCOC(=O)C1=C(C)N=c2s/c(=C/c3ccccc3O)c(=O)n2C1c1cccs1 (centres unmarked)  21.4%
100. COc1cc(Cl)cc(/C=C2\SC(c3ccccc3)=NC2=O)c1O  41.6%

In the case of Cc1cn([C@H]2C=C[C@@H](CO)O2)c(=O)[nH]c1=O, the “% Inhibition @ 10 uM” value is reported as -6.22% and -2.91%.
